In the supplement of paper PMC11417369:
± gives the standard deviation of the averaged measurements. The list shows a part of the results.

tested on: PfAP2-LT AP2 domain (GST-tagged); assay: gcPBM binding intensity (ln(normalized median fluorescence intensity)); higher = stronger DNA binding
Outline: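 Binding of GST-tagged P. falciparum DNA-binding domains, expressed in E. coli and used at about 25 μg on average, was carried out for 1 h in 1× PBS containing 1% milk, 0.2 mg/ml BSA, 0.5% salmon testes DNA and 0.03% Triton X-100. The target was an Agilent 4 × 180k array of primer-extended double-stranded 36-bp intergenic genomic probes plus negative controls, read with Alexa488 anti-GST antibody at 488 nm. Binding intensity is the highest Masliner-normalised natural-log median intensity across replicate spots of either probe orientation.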

| Sequence | gcPBM binding intensity (ln) |
| --- | --- |
| AAAAAGAAAAAACTTACACACATATATACCCCCATG [CACACA_site4463] | 9.71 ± 0.014 |
| TGAAGGAATACAGCTCGTACATGTGTAAAGAGATAA [XGTACX_site500] | 9.09 ± 0.49 |
| TAATTTAAATGATGTAGTACATATAAATATATCTAA [XGTACX_site262] | 8.48 ± 0.38 |
| TGAATTAACAAATAGACACACATATATATATATATA [CACACA_site3195] | 9.9 ± 0.11 |
| TTAAAAAATATATGCGTGCACTAATATTTCATATGC | 8.89 ± 0.33 |
| ACCATTTGTACTTACGCACACATAAAATATATATAT [CACACA_site1545] | 9.2 ± 0.34 |
| TACTATTTTTATAATACACACATATATTTGTGATAT [CACACA_site1775] | 9 ± 0.37 |
| TGTGGCCCTGCGAGGTGGTCATCATGAATACGAAAA [XGTACX_site1526] | 8.63 ± 0.52 |
| TCAAAAATTTATATAGTGCAATATATATATAATGTA | 8.54 ± 0.49 |
| TTGTAATATATAAAAGTGCATATATGGTTCCATATA [GTGCAC_site9544] | 8.6 ± 0.47 |
| TAATTTATTGTACGTGCATGCTATTTTTTATTTTTA [TGCATGCA_site1059] | 9.13 ± 0.49 |
| AACAAAAAAACAAACACACACACACCCATATATATA [CACACA_site3652] | 10.03 ± 0.042 |
| ATATGTGAATAAAAATGTACGTGTTCTTTTTTTTTT [XGTACX_site320] | 8.71 ± 0.48 |
| TCATACATTTTCCTTGCACACATTTATAATTAATGT [CACACA_site614] | 9.39 ± 0.4 |
| AAAAAAAAAAAAAAATGTACATATATATTTATATAT [XGTACX_site229] | 8.57 ± 0.37 |
| TCAAAGGAATTTTTATGTACATATAAACTTTATTCT [XGTACX_site3432] | 8.66 ± 0.47 |
| AACCCCAAGCCGTACTGTACATATATTTTTATTTTA [XGTACX_site142] | 9.11 ± 0.2 |
| AAAAGTTGTATTTGCACACATAAAAAAAAGATATTA [CACACA_site3840] | 8.98 ± 0.46 |
| AAATTCAAACAAATTACACACATTTTTTTTTAATTT [CACACA_site3596] | 8.91 ± 0.52 |
| AAATAAATTTGACCAGTGCAATAACTTTGTATACCT [GTGCAC_site9446] | 8.77 ± 0.44 |
| TATAATATAAAAAAAAGTACACGAATTTTTTTTCAG [XGTACX_site6105] | 8.36 ± 0.42 |
| ACAATATATTTTTGAGCATGCGCAAAAGAGAATGCA [TGCATGCA_site566] | 8.85 ± 0.42 |
| ATCCAAAAGAAAAATAGTACAGATATGAACAATATG [XGTACX_site6944] | 8.88 ± 0.45 |

| Sequence | gcPBM binding intensity (ln) |
| --- | --- |
| ATATATCTATATAGAAATGTATATATATATATGTGT [TGCATGCA_negctrl_site349] | 9 ± 0.4 |
| TATTATTCTACTATTATATTCTATATTATTTATAGT [CACACA_negctrl_site499] | 8.79 ± 0.49 |
| TAAAATCAATGTTCTTGTACTTAAAATGTTTGTTCT [XGTACX_site5490] | 8.7 ± 0.57 |
| AGTATAAAATTTGGTTGTACATTTTTAAAAAAATTA [XGTACX_site7519] | 8.29 ± 0.42 |
| AAAATTAAATTATTTACACACAATATTAAAATATTT [CACACA_site3244] | 8.57 ± 0.47 |
| TTTTTTTTTTTTTATACACACATTAAAATAAAAAAG [CACACA_site3946] | 8.33 ± 0.34 |
| CTCTTCCTTAATTTTTGTACTTAAAATTTTTTTTTT [XGTACX_site1628] | 8.7 ± 0.45 |
| AAAGAAAAAAAAAAAACACACAAAAAAAATCAAAAT [CACACA_site2871] | 9.04 ± 0.57 |
| TTATGCAAAAATAAATCAATATGTTGATATGTAAAT [GTGCAC_negctrl_site128] | 8.73 ± 0.45 |
| ATATAATTTAATTTCTGTACATAAGAGAAAAAACAA [XGTACX_site4865] | 8.54 ± 0.39 |
| AACATATACTGTTTATGTACACATTGTTATATTAAT [XGTACX_site4276] | 8.96 ± 0.3 |
| TACATTTTATGCATTTGTACACAAATAAATAAATAA [XGTACX_site2652] | 8.49 ± 0.42 |
| ACTTTAAAAAGATTCACACAAAATATATAAAAATAT [CACACA_site5334] | 8.54 ± 0.5 |
| ATATCAATTTTTGGTGGTACGTAGGAAGTTTCAGAA [XGTACX_site6881] | 8.63 ± 0.4 |
| TACGAAAGGTAATATTGTACATTACAAAATTTTATA [XGTACX_site5512] | 8.64 ± 0.39 |
| AATAAGCAGAAACACACACACAAAAAAAAAAAAAAA [CACACA_site719] | 9.55 ± 0.68 |
| TATGTATAAATATTAACACACAAAAAAAAAAAAAAA [CACACA_site6938] | 8.74 ± 0.4 |
| ATATAAACAAAGCAGTGCACGTAAACAAAACATATA [CACACA_negctrl_site1076] | 9.4 ± 0.38 |
| GTTTGATAACACCTACAAACTCTTTTTTTTTTTTTT [CACACA_negctrl_site1134] | 8.53 ± 0.44 |
| CATAATATTAAATCAGTGCAAATATACAGAATAAAT [GTGCAC_site9786] | 9.07 ± 0.47 |
| AAATGAAGATTTAAATGTACGAGAGGGTATACAAAT [XGTACX_site5075] | 8.95 ± 0.42 |
| GACTTCTCCATATACACACACCAACAAATATAAAAA [CACACA_site7331] | 9.24 ± 0.38 |
| AAATTTATAAATTAAAGTACATATTTCTTGAATATT [XGTACX_site859] | 8.45 ± 0.35 |

| Sequence | gcPBM binding intensity (ln) |
| --- | --- |
| TATTAAATTATATAGACACACATTATGTATATATAT [CACACA_site345] | 8.87 ± 0.41 |
| TATAGATACACTTTGTGTACATAAAAATTGTATTAA [XGTACX_site7137] | 8.67 ± 0.4 |
| CTATACAATAAAAATTGTACATACATATATGTTATA [XGTACX_site5309] | 8.69 ± 0.34 |
| AATTTTTCTTTTTTTTGTACAGAATATATATTTTAT [XGTACX_site1419] | 8.75 ± 0.48 |
| ATAATATGTTATTAAGTGCATATTAATTATTATTAT | 8.62 ± 0.36 |
| ATATTTATGTAATGTTTGATTTTTTTTTTATGTGTG [CACACA_negctrl_site1422] | 8.76 ± 0.52 |
| ACATATACATACATATGTACATATACATAAATATAT [XGTACX_site1285] | 8.98 ± 0.38 |
| TATATATTTACATATTGTACAATATAAAAATAATTA [XGTACX_site19] | 8.45 ± 0.35 |
| TACTGTTTAAAATATACACACATAATCAAAAAAAAA [CACACA_site2510] | 8.82 ± 0.38 |
| AAAAAAAAAATTGAAAGTACACAAATGGGGTATTAT [XGTACX_site3960] | 8.79 ± 0.44 |
| TCGTTATCCATCTTCACACATATATATAGTAATATA [CACACA_site5492] | 8.87 ± 0.35 |
| TATATATATCTTTTGGTGCATATTTCGAATATATGT | 8.95 ± 0.33 |
| ACATTGCACCCGTGCACACATAGAAAAATAATTCTT [CACACA_site409] | 9.1 ± 0.41 |
| GTAGTCCAAAAAAAGCGTACACAGAAAAAAAAAAAA [XGTACX_site4273] | 8.72 ± 0.45 |
| ATAACAAAAATCCTTGTGCACTATTTTAATAGAGTC | 8.85 ± 0.4 |
| TACATCTTACTACTTATAATATAATATAGTATGAAT [TGCATGCA_negctrl_site8] | 8.49 ± 0.35 |
| CATTATGATTAAATATGTACATATTATTATATAAAT [XGTACX_site2477] | 8.59 ± 0.4 |
| TACAATATATTTATAGTGCATATTACTTTTAACTTT | 8.65 ± 0.45 |
| TCGTAATAATATAAATGTACTTTATTAATTAAAAGA [XGTACX_site3416] | 8.43 ± 0.4 |
| AAAAAAAATTTTATCTGTACACATTTTTTTCTTTTT [XGTACX_site4229] | 8.77 ± 0.64 |
| ATATAATTTATGTGCACACACTCCTATTTTTAGCTT [CACACA_site50] | 9.43 ± 0.42 |
| AAAAAGTAAAAGAAAGCACACACACCGGTATATATG [CACACA_site9281] | 9.7 ± 0.25 |
| AACAAAATAAGACACACACACAAATGTACCTATATA [CACACA_site7189] | 9.74 ± 0.41 |

| Sequence | gcPBM binding intensity (ln) |
| --- | --- |
| TCTTTTTTAAATAAAAGTACAAAAAAAAATAAAAAA [XGTACX_site2670] | 8.36 ± 0.44 |
| TAATATATATGTATGGCACACACGGATAAATATATA [CACACA_site930] | 9.28 ± 0.31 |
| AAAAAAAATATGAAAACACACATATATAAATAAATA [CACACA_site113] | 8.88 ± 0.46 |
| CATGCCTTTAAAAAGGTGCAAACATTTTCACAAACA | 8.62 ± 0.57 |
| AAATTATTTTGTTATCATTATATATAGATTGAATAT [XGTACX_negctrl_site165] | 8.42 ± 0.38 |
| AACGGGTAATGCACAAAAAAAAAAAAATAAAATAAA [TGCATGCA_negctrl_site474] | 8.8 ± 0.65 |
| TTCTTTTAAATTAGCTGTACGGTTTTCTACATGCAT [XGTACX_site356] | 9.22 ± 0.47 |
| TTATCATATGTATGCATACACACAAAAAATTATATA [CACACA_site397] | 9.02 ± 0.38 |
| CAAACAAATATATGTTGTACTTATTATATATACATA [XGTACX_site2998] | 8.6 ± 0.42 |
| ATGTAATTCTTTTACTTTTTTTTTTTTTTTTTTTTT [CACACA_negctrl_site979] | 8.47 ± 0.46 |
| ATAAATGAGCCATATTAAATCCGTTACACGGGTGTG [CACACA_negctrl_site1368] | 8.68 ± 0.42 |
| AAATAATTCATATGTTGTACAGTAATTAAATTTTCT [XGTACX_site6343] | 8.52 ± 0.4 |
| ATAATTAATCCAAAATGTACTTACATTTTATATGAA [XGTACX_site8888] | 8.4 ± 0.38 |
| ATAAGGATCAGACACAAACACACATATATATATATA [CACACA_site558] | 10.1 ± 0.13 |
| TTTTTTTTTCTTTGCACACAGATAACTTGAAATTTG [CACACA_site2185] | 8.97 ± 0.46 |
| TTTTATAATTTATCTAAAAAAAAATAAAATAAAATG [TGCATGCA_negctrl_site429] | 7.95 ± 0.46 |
| ATAAAATAAAATAAAAGTACATAAATATATATATAT [XGTACX_site6110] | 8.99 ± 0.43 |
| ACATATATATATATTACACACACACTAATAAAATAA [CACACA_site7920] | 9.76 ± 0.14 |
| TTTCAAGAATTATATAAACACACATACATACACCCA [CACACA_site8592] | 9.295 ± 0.092 |
| AATAATATATATTACTGTACTAATATAAGGGACATC [XGTACX_site3744] | 9.03 ± 0.43 |
| TTATTTTCTACAAATTGTACATATTTTTTACTACTC [XGTACX_site1394] | 9.05 ± 0.42 |
